# Measured values taken from article PMC4336329 (PLoS ONE, 2015).
# In all, about 310,000 compounds went through this assay and about 14,000 (4.5%) showed an effect of 50% or more. Effects have a minus sign here. The list shows a part of the results.
# Target: human ether-à-go-go-related gene (hERG) potassium channel (human, UniProt Q12809)
# Test: primary screen, population patch clamp on CHO cells stably expressing hERG
# 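Also: peak tail current of the secondary pulse compared with the same well before compound.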
# human ether-à-go-go-related gene (hERG) potassium channel, sequence (Q12809 whole entry, looked up): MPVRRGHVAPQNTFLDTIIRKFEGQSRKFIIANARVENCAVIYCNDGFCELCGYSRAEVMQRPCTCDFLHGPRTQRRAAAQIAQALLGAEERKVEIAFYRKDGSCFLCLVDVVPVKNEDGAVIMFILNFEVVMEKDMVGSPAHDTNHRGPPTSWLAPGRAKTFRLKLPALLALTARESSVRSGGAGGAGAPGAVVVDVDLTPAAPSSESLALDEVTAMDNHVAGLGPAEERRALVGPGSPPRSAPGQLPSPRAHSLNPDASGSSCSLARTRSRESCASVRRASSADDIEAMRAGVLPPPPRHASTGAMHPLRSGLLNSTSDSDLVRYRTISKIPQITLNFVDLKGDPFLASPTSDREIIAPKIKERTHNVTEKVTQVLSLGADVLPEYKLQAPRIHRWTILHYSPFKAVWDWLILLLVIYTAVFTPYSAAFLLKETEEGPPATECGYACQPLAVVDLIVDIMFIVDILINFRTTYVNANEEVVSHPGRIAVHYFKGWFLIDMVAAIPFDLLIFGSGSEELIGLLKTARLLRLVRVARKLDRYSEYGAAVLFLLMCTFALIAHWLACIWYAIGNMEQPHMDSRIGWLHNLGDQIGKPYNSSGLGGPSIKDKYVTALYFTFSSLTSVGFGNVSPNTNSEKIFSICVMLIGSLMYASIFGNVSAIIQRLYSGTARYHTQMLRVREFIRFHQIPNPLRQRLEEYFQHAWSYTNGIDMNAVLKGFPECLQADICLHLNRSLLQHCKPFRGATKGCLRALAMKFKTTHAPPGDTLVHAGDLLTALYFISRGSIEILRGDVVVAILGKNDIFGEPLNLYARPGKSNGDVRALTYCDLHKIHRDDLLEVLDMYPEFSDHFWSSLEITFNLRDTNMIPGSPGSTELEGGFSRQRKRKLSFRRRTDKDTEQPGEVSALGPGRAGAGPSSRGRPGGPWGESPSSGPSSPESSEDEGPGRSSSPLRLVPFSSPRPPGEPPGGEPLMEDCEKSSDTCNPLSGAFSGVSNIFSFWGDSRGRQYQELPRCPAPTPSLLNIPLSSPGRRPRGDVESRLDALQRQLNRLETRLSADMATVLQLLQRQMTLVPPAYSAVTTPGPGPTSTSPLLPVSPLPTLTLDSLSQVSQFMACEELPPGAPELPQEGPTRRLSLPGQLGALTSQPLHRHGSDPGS
row,SMILES,"hERG current change (%, negative = inhibition) at 10uM [%]"
1,COc1ccc(NC(=O)Nc2ccc(Cc3ccncc3)cc2)cc1OC,11.6
2,CC(=O)c1sc(NC(=O)CN2C(=O)CCC2=O)nc1C,6.48
3,O=C(Cn1cnc2c(cnn2-c2ccc(Cl)cc2)c1=O)N1CCN(c2ccccc2)CC1,8.46
4,O=C(COc1ccccc1)Nc1nnc(C23CC4CC(CC(C4)C2)C3)s1,21.7
5,COc1cc(/C=C/C(=O)c2ccc3c(c2)OCCO3)cc(OC)c1OC,15.7
6,Cc1cccc(/C=C2/S/C(=N/N=C3\CC4CCC3(C)C4(C)C)NC2=O)c1 (stereo not shown),-3.41
7,CC(=O)N1CCc2cc(S(=O)(=O)NCC(=O)NCc3ccc(Cl)cc3)ccc21,-0.999
8,Cc1ccc(N2C(=O)CC(=O)NC2=O)cc1,-16.9
9,CCCCc1nc(NCCN)c(C#N)c2c1CSC(C)(C)C2,-38.3
10,O=C1/C(=C/c2ccc(O)cc2)CCc2ccc([N+](=O)[O-])cc21,3.88
11,Cl.O=C(CN1CCC(n2nnc3cc(F)ccc32)CC1)NCc1ccco1,-35.6
12,COc1ccc(CN2CCN(S(=O)(=O)c3ccc(C)cc3)CC2)cc1Br,-5.37
13,N#CC1=C(SCc2ccccc2)NC(=O)CC1c1ccco1 (stereo not shown),10.9
14,CCC(CC)C(=O)c1c[nH]c(C(=O)N2CCN(c3ccccc3)CC2)c1,20.4
15,COc1ccc(C2OC(=O)CC2C(=O)NCc2ccccc2Cl)cc1OC (stereo not shown),12.5
16,C=CCNC(=O)c1ccc(OC)cc1,-12
17,CCOC(=O)/C=C1\Nc2ccccc2OC1=O,24.5
18,Cc1cccc(NC(=O)c2cc(-c3cccnc3)nc3c(C)cccc23)n1,5.01
19,CCOc1cc(/C=C/c2nc3ccccc3c(=O)[nH]2)cc(Br)c1OC,18.9
20,CCCC(=O)Nc1ccc2nc(C)n(Cc3ccccc3Cl)c(=O)c2c1,2.59
21,COC(=O)C1=C(O)CSC1=Nc1ccc(C)cc1,0.342
22,Cn1c(C(=O)N2CCOCC2)cnc1Sc1ncc(C(F)(F)F)cc1Cl,5.94

row,SMILES,"hERG current change (%, negative = inhibition) at 10uM [%]"
1,Cn1nccc1C(=O)N1CCN(c2ccccc2Cl)CC1,-18.6
2,COc1cc(OC)c(C2C(C(=O)N3CCOCC3)=C(C)NC3=C2C(=O)CC(C)(C)C3)cc1OC (stereo not shown),18.7
3,Cn1c(N)c(C(=O)COC(=O)/C=C/c2cccc(Br)c2)c(=O)n(C)c1=O,2.05
4,CN1CN=C(NS(=O)(=O)c2ccc([N+](=O)[O-])cc2)NC1,-1.84
5,O=C(NCCc1nnc2ccc(NCC3CCCO3)nn12)c1ccccc1 (stereo not shown),-1.33
6,CC(C)C(c1nnnn1Cc1ccc(F)cc1)N1CCC(C(N)=O)CC1.Cl (stereo not shown),-7.54
7,O=C(Nc1ccc(F)cc1)OCCOc1ccc(Br)cc1,17.6
8,CC(=O)N1CCN(C(=O)CCc2c[nH]c3ccccc23)CC1,0.963
9,CCS(=O)(=O)n1c(Cc2cccs2)nc2ccccc21,10.6
10,Cc1c(C(=O)Nc2ccncc2)sc2nc(-c3ccc(F)cc3)cn12,-8.24
11,CCN(CC)c1ccc(NC(=O)CN2CCN(CC(=O)Nc3ccc(OC)cc3)CC2)cc1,-74.9
12,O=C(Nc1cccnc1Cl)C1CCCN(c2ncnc3c2nc2n3CCCCC2)C1 (stereo not shown),-42
13,COc1ccc(/C=N/Nc2ccccc2)cc1Cn1nc(C)c([N+](=O)[O-])c1C,1.71
14,COc1ccc(NC(=S)NC23CN4CN(CN(C4)C2)C3)c(OC)c1,-2.51
15,CCC1CCCCN1C(=O)Nc1ccc(F)cc1 (stereo not shown),18.2
16,O=C(c1ccc2c(=O)n(-c3ccccc3)c(=O)[nH]c2c1)N1CCN(c2ccc(F)cc2)CC1,6.39
17,CCn1c(=NC(=O)CN2C(=O)CCC2=O)sc2c(OC)ccc(OC)c21,7.93
18,CCN(CC)CCNC(=O)Cn1c(-c2ccccn2)nc2ccccc21,-35.1
19,CC(=O)O[C@]1(C)C(=O)OC/C2=C/CN(C)CCC(OC(=O)[C@@](O)(C(C)O)C[C@H]1C)C2=O (stereo partly shown),1.77
20,NP(=O)(OCCCc1ccccc1)Oc1ccccc1Cl (stereo not shown),-11.9
21,CSc1ccccc1C(=O)NCC(c1ccco1)N(C)C (stereo not shown),16.9
22,Cc1ccc(-c2nn3c(C)nnc3s2)cc1NC(=O)C(C)C,11.8

row,SMILES,"hERG current change (%, negative = inhibition) at 10uM [%]"
1,Clc1ccc(-n2ncc3c(NCC4CCCO4)ncnc32)cc1 (stereo not shown),-0.315
2,COCCN(CC(=O)Nc1ccc(F)cc1)S(=O)(=O)c1ccc(S(=O)(=O)N2CCCC2)cc1,5.49
3,O=C1CC(C(=O)N(c2ccccc2)C(C(=O)NC2CCCC2)c2ccncc2)CS1 (stereo not shown),24.8
4,COc1ccc(SCC(=O)Nc2ccc(N3CCN(C)CC3)c(F)c2)cc1,-49.7
5,Nc1c(N(CCC2=CCCCC2)C(=O)c2ccc([N+](=O)[O-])o2)c(=O)[nH]c(=O)n1Cc1ccccc1,-9.08
6,CCOC(=O)N1CCN(CCC(=O)Nc2cccc(Br)c2)CC1.Cl,-43.1
7,CC(C)Oc1cc2oc(=O)c3c(c2cc1Cl)CCC3,17.6
8,CCOc1ccc(-n2c(SCC(=O)Nc3ccc(OC)cc3)nc3c(c2=O)SCC3)cc1,6.25
9,CCC(C(=O)N1CCOCC1)n1c2ccccc2c2nc(=O)cc(C)n21 (stereo not shown),13
10,CCOc1ccc(NC(=O)C2CCC(C)(C(=O)O)C2(C)C)cc1 (stereo not shown),6.49
11,CN(C(=O)CSc1nnc(-c2ccccc2F)o1)c1ccccc1,-7.07
12,Cc1ccc(S(=O)(=O)N(C)CC(=O)Nc2ccccc2)cc1,-20
13,CCOc1ccc2c(c1)C(c1cccs1)=NNC(c1cccnc1)=N2,-65.4
14,Cc1ccccc1NC(=O)Cc1nnc(SCC(=O)NC2CCCC2)n1C,13.3
15,Cn1c(-c2cc3c(C(F)(F)F)nn(C)c3s2)n[nH]c1=S,16.7
16,COCCCNC(=O)C1C2C=CC3(CN(Cc4ccc(C)cc4)C(=O)C13)O2 (stereo not shown),2.29
17,COc1ccccc1OCC(=O)N1CCCCCCC1,11
18,COC(=O)c1sccc1NC(=S)N1CCC(C)CC1,9.29
19,O=C(O)CSc1c(-c2ccccc2)c2cc(Cl)ccc2[nH]c1=O,-3.09
20,Cc1cc(C)cc(N(CC(=O)NCc2ccc3c(c2)OCO3)C(=O)CCC(=O)Nc2ccccn2)c1,-6.47
21,CCOc1ccc(NC(=O)CCS(=O)(=O)c2ccc3c(c2)CCCN3C(C)=O)cc1,7.01
22,C/C=C(/C)C(=O)OC1c2c(ccc3ccc(=O)oc23)OC(C)(C)C1OC(=O)/C(C)=C\C (stereo not shown),-12.3

row,SMILES,"hERG current change (%, negative = inhibition) at 10uM [%]"
1,CCOC(=O)C1=C(C)NC(C)=C(C(=O)OCC)C1C(=O)OCC(=O)N(C)C1CCS(=O)(=O)C1 (stereo not shown),12.3
2,Cc1cccc(OC(=O)c2sc3ncn(C)c(=O)c3c2C)c1,3.54
3,Cl.O=C(CN1CCOCC1)N1CCc2ccccc2C(c2ccccc2)C1 (stereo not shown),-9.78
4,CCc1ccc2[nH]c(=O)c(CN(CCCN3CCOCC3)C(=O)Nc3ccc(Cl)cc3)cc2c1,-65.6
5,Nc1nc2ccccc2n1C(=O)CCc1ccccc1,21
6,O=Cc1ccc(Oc2cccc(C(F)(F)F)c2)nc1,5.59
7,O=C(Nc1cccc(NC(=O)c2cccs2)c1)c1ccc([N+](=O)[O-])o1,-22.3
8,CC(NC(=O)C1CCCN1S(=O)(=O)c1cccc2nsnc12)c1ccccc1 (stereo not shown),-1.81
9,O=[N+]([O-])c1cccc(S(=O)(=O)Nc2ccc(S(=O)(=O)Nc3nccs3)cc2)c1,13.9
10,CCN1CCN(c2nc3c(C)cccn3c(=O)c2/C=C(\C#N)C(=O)NCCOC)CC1,-3.74
11,CCCCCc1nnc(NC(=O)NS(=O)(=O)c2ccc(C)cc2)s1,18.8
12,COc1cccc(N2C(=O)CC(N3CCN(C(=O)c4ccco4)CC3)C2=O)c1 (stereo not shown),9.29
13,CCCC(=O)Nc1ccc(C=C(C(C)=O)C(C)=O)cc1,-0.43
14,CO/N=C(\C)C(Cc1ccc(Cl)nc1)Cc1ccc(Cl)nc1,2.67
15,CNC(=O)COC(=O)c1cccnc1SC,3.53
16,CCOC(=O)C1=C(CSc2nc(C)ccc2C#N)OC(N)=C(C#N)C1c1cccc(OC)c1OC (stereo not shown),3.79
17,CCCCCNC(=O)Cc1ccc(OC)cc1,1.41
18,O=[N+]([O-])c1cc(S(=O)(=O)N2CCCC2)ccc1N/N=C1/CCCc2ccccc21,6.93
19,CC1=NN(c2ccccc2)C(=O)/C1=C/c1cccc(C)c1,5.65
20,Nc1nc(SCC(=O)NCc2ccc3c(c2)OCO3)n[nH]1,12.4
21,Cc1ccc(S(=O)(=O)N2CCC(=O)N(CCO)CC2)cc1,6.67
22,CCCOc1ccc(-c2c(C(=O)N/N=C/c3ccc(C)cc3)nnn2-c2nonc2N)cc1,5.24
